Reference: patent US10376475B2, “Method of use” (Dermavant Sciences GmbH, priority 2014, dated 2019)

Tested on: IL-17A
Assay: Skin-Resident Immune Cell Activation: ex vivo human skin explants under Th17-polarizing conditions, IL-17A qPCR
Conditions: compound 1 10 μM, one day pretreatment, 24 hrs post stimulation, relative to vehicle-treated (0.2% DMSO)
From the text: In this example, we investigate the ability of compound 1 to suppress the release of IL-17A from ex vivo human skin challenged with a pro-inflammatory Th17-skewing cocktail.
Stimulation of skin-resident immune cells in ex vivo human skin explants leads to the production of pro-inflammatory cytokines, including but not limited to IL-17A, IL-17F, and IL-22, thereby providing a novel model system with which to evaluate immunomodulatory therapeutics targeting skin inflammatory processes.
The ability of a test compounds to modulate the expression of pro-inflammatory cytokines was assessed using the skin-Resident Immune Cell Activation method. Ex vivo human skin obtained from abdominoplasty surgery was processed to remove fat and the tissue dermatomed to ˜750 microns. […]
Total RNA was isolated from about 30-40 mg of tissue using Qiagen's (Cat #74106) Mini RNA Isolation kit. […] For each technical replicate, 100 ng of RNA was used as template in a 20 uL PCR volume using Applied Biosciences RNA-to-CT 1 Step kit (AB Catalog #4392938) as well as the specific TaqMan probe for each gene to be quantified. […]
Relative gene expression data were averaged across triplicate biological replicates from PCR amplification run in technical triplicates. All data were normalized to untreated control samples (set to 1), and the average fold change (+/−SEM) calculated for each graph. […]

Structure (SMILES): CC(C)c1c(O)cc(/C=C/c2ccccc2)cc1O [Compound 1]
- IL-17A gene expression: reduced the level of IL-17A gene expression
